The list shows a part of the results. At the low end of the ranking the order means little.
Target: SIX1 homeodomain (reference allele) (UniProt Q15475)
Experiment: universal protein binding microarray
Conditions: Universal all-10-mer PBM (8x60K, AMADID 030236), 300 nM GST-tagged protein, Alexa Fluor 488 anti-GST; buffer, salt, pH and temperature not stated; high values mean tight binding; most listed sequences are background and not binding sites; double strand, one strand shown

Sequence	binding signal [E-score]
AATATATC	0.343
CCTCGCTA	0.0787
GCGAGGAC	-0.311
AACCCCCC	0.0227
AATGATCG	0.152
CCTATAGC	0.0354
CAAAGACA	-0.115
CACTTGTA	-0.085
GTTGTGTA	0.0531
AAATTCCA	-0.257
GCTACAGC	-0.24
GAGTCAGA	0.00829
CCAGCACC	-0.174
ACGTGCAC	-0.277
AATCGGGT	0.0616
CCCAGCAC	-0.0219
AGGTATCC	0.461
AGGAGCCG	0.0792
CGGTCTGA	0.057
CTGAAGCA	-0.223
CATCAACC	-0.0663
ATAAAGCG	-0.0482
GAGCTGAC	0.0148
GGCCGCGA	-0.235
ATTGTGGC	-0.0908

Sequence	binding signal [E-score]
AGATCTGA	0.248
CTGGGACA	-0.00937
GAAGATAC	0.354
CTGAACAA	-0.118
AATAGGCC	-0.215
GGTCGTTA	-0.0446
ATACGTGG	0.272
CAAAACAC	-0.0164
CTGCAAGC	-0.104
GAAGCCGC	-0.00785
ACATACCT	0.065
AACTAGTC	-0.166
CAGGCGCA	-0.154
CTATTCCA	0.0203
ATGACCGC	-0.0542
CAACTTCG	-0.0934
ATAAAACC	0.0786
GTCCGGAA	-0.162
ATCGAATG	0.0658
CTCTTCAC	0.103
AAAATCCC	0.0865
CTCACGAA	-0.142
AGTGAGTG	-0.0564
GCTGGAAC	-0.338
AACCACAA	-0.16

Sequence	binding signal [E-score]
CATCCCCA	0.0561
GGCCCGCA	-0.15
GGGGTAGA	0.158
CAGGAAAC	-0.115
CCGTATTA	0.322
CCAGTCTA	-0.0989
AACCCCTG	-0.0306
CATCGAAC	-0.0557
GGCCCTTA	-0.161
CCGTCGGA	0.0258
GTGACGTA	0.00305
AGGCGTAC	-0.0669
GCATAACA	-0.1
GTAATTGA	-0.00036
ATAGTAAG	0.0396
CTCTGATA	0.312
AAAGCATT	-0.116
GCAATAGC	-0.0144
AATTCTGG	-0.0871
CGTTAGAC	0.0127
ACCAGGGC	-0.159
CAGCCTGA	-0.0882
ACCGCAAC	0.0379
ACCTTATG	-0.0053
CTCGTGGC	-0.156

Sequence	binding signal [E-score]
GCATGACA	-0.0684
ACATGCGT	-0.159
TCGTGAGA	0.211
CACTTTAA	-0.0446
AGGCGTTA	-0.185
CACTCTGG	-0.0261
ACATCTAG	0.0333
CATATAAG	0.147
AGCGGTAG	-0.15
GACTCCCA	-0.233
ATACGCGA	0.296
TCAATTAA	-0.0499
GCAAGTAA	-0.0799
CGCGACCC	0.172
CAGAACTC	-0.175
AAAAACCT	-0.0824
GGCGCAAC	-0.244
GCCAAATA	-0.00988
CATATTAG	0.191
ACACTGGG	0.0696
ATTGCAAA	-0.165
AGGTCTCC	-0.0742
AATGGCGT	-0.0397
AGTTAGTC	-0.252
GTGATAGA	0.0959

Sequence	binding signal [E-score]
AGGGTCGC	-0.057
ACCAGGTA	0.00634
GGCAAGAC	-0.0555
GCGCGAGA	0.0119
AACGTTGC	-0.194
CGAGAACA	-0.0357
ATTTCTAC	-0.197
CGTAGTAG	-0.12
CGCTTGTA	-0.194
GTTCACTA	-0.209
AGGCTAAT	-0.0147
AGTGCAGC	-0.199
GATCACCA	0.334
AGGAACAA	-0.0494
ATACTATC	0.401
GACGCCGA	0.0316
ACCTCCGG	0.148
CTCCCCAG	0.0437
CCCTATCA	0.429
CATAGTCC	-0.112
GCGAGCAA	-0.0421
CTGCGTTA	-0.0109
GGGTTTAC	0.029
CGCCCTAA	-0.139
ATAACTCA	0.00299

Sequence	binding signal [E-score]
CATAGATC	0.249
AGCCACCC	0.138
GGTCATAC	0.0523
GGTGACAA	-0.059
CGACGTCG	-0.0969
GCGCCTCC	-0.0789
ACCTCCAC	0.0581
AAGGTTAA	-0.185
AAACCTGA	-0.0717
GTTGCCGA	-0.286
CACCGCTG	-0.0451
CATTAACA	-0.0626
CCCTCTAA	-0.0629
GTAAACCA	0.0641
AGGATTGG	-0.00881
ATTCCCTC	0.0038
ACTTACCG	0.152
CTAGGTAA	-0.143
AGCGAAGG	-0.178
CAGTGATC	0.382
ACTTGGCT	-0.196
CCGGGCAG	0.0688
ACAGGCAG	-0.0735
ACCGTGTA	0.0874
ATCTAGCC	0.18

Sequence	binding signal [E-score]
AGCGCGGC	-0.236
GGGTTCGA	0.0642
TCTATAGA	0.126
ACCGGCAG	-0.0528
GAGGGTAC	0.0142
AGAACCGA	0.0277
TAATTGGA	-0.0559
CGCAGGTC	-0.138
CATATTGC	0.0469
AGTAATAG	-0.0417
CAAGCACG	-0.233
CACTACGG	-0.0195
GACGTATC	0.42
GTTATGAA	-0.0671
CCCTGTAA	-0.194
GGACGTCA	-0.118
CGGGGTAC	0.052
TAATACGA	0.276
CGCTTACC	-0.112
ATGGCTAA	0.135
ATACAGAC	0.116
CGTCACCC	-0.218

— paper PMC10668032
